Reference: article PMC4336329 (PLoS ONE, 2015)
Screen size: about 310,000 compounds; about 2,200 (0.71%) showed an effect of 50% or more. Effects have a minus sign here. The list shows a part of the results.

Each compound was assayed against human ether-à-go-go-related gene (hERG) potassium channel (human, UniProt Q12809) (assay: primary screen, population patch clamp on CHO cells stably expressing hERG).
Sequence of human ether-à-go-go-related gene (hERG) potassium channel (Q12809 whole entry, looked up): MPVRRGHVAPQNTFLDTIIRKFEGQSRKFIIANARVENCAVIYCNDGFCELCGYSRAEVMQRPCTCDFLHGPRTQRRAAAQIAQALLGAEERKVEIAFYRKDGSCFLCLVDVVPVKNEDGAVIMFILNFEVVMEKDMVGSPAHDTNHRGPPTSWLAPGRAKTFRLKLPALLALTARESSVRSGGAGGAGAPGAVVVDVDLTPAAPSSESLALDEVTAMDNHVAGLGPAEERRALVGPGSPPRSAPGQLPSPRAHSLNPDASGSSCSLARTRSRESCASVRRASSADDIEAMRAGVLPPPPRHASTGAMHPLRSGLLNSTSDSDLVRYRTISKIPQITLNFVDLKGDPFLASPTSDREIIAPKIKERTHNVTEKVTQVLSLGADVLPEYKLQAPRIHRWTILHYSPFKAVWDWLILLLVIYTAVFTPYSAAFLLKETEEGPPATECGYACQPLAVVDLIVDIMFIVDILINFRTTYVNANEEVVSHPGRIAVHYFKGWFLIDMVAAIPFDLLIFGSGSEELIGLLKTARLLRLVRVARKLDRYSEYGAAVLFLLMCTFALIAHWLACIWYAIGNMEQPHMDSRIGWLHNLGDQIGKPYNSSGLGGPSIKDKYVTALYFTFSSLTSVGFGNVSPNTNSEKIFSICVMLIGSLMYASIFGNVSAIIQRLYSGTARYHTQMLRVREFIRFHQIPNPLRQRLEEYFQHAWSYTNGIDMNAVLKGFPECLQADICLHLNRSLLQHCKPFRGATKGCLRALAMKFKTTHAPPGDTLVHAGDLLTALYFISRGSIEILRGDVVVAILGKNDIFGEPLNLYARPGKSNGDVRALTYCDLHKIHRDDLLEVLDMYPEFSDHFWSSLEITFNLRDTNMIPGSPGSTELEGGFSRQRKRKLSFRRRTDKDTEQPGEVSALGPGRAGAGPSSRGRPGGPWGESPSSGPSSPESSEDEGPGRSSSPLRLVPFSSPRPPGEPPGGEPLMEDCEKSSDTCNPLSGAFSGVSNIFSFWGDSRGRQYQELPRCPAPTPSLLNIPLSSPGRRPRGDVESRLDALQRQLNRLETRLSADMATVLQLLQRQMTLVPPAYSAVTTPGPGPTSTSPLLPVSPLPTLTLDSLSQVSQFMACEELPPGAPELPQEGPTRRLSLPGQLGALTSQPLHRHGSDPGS

Structure (SMILES)	hERG current change (%, negative = inhibition) at 1uM [%]
CC(=O)NC(Cc1cccc(F)c1)C(=O)NC1CCN(C(=O)Nc2ccc(C)cc2)CC1 (stereo not shown)	15.8
COc1ccc(CC2(CO)CCN(C/C=C/c3ccccc3OC)CC2)cc1	-71.4
CCOC(=O)C1CCCN(CC(=O)Nc2c(C(=O)OC)[nH]c3ccc(Cl)cc23)C1 (stereo not shown)	6.43
NS(=O)(=O)c1cc(C(=O)OCC(=O)Nc2ccccc2[N+](=O)[O-])ccc1Cl	8.47
Nc1nc(Nc2ccccc2F)nc(NCCO)c1[N+](=O)[O-]	12.2
NC(=O)c1c(NC(=O)c2ccccc2)sc2c1CCc1ccccc1-2	4.64
CCNC(=S)NNC(=O)c1nn(C)c(C)c1Cl	10.5
CC(C)CNC(CC(=O)O)c1ccccc1 (stereo not shown)	6.91
CN(C)CCNC(C(=O)Nc1cccc(C(F)(F)F)c1)c1ccccc1.O=C(O)C(=O)O (stereo not shown)	-14.6
CCOc1ccccc1NC(=O)COc1coc(CN2CCCc3ccccc32)cc1=O	13.5
CCN(CC)S(=O)(=O)c1ccc(N2CCN(CCOc3ccc(OC)cc3)CC2)nc1	-1.21
COc1ccc(Cc2nnc(NC(=O)C3CC(=O)N(c4ccccc4)C3)s2)cc1OC (stereo not shown)	0.647
CCOC(=O)c1c(NC(=O)c2cccs2)sc2c1CC(C)(C)OC2	9.62
Cc1ccc(C(=O)N/C(=C\c2ccc(-c3ccc(Cl)cc3)o2)C(=O)NCCCN(C)C)cc1	-93.5
COc1cccc(C2C(C(=O)c3cccs3)=C(O)C(=O)N2CCN2CCOCC2)c1 (stereo not shown)	17.2
CCOC(=O)c1c(C)nn(-c2ncccc2NC(=O)NC(C)C)c1C	1.69
CC(CN1CCCCC1)OC(=O)c1ccccc1F.Cl (stereo not shown)	10.6
COc1ccc(N2CCN(C(=O)CCc3ccc(S(=O)(=O)NC(C)(C)C)cc3)CC2)cc1	9.52
COc1ccc(-c2nc(CN3CCN(Cc4cccc(F)c4)CC3)c(C)o2)cc1	-5.04
O=C(CCCSc1nc2ccccc2[nH]1)NCc1ccccc1F	4.76
CN1C(=O)CSc2ccc(NC(=O)N3CCC(N4CCCCC4)CC3)cc21	-2.54
CSc1nc2c(c(=O)[nH]1)C(c1ccccc1)C1=C(CC(C)(C)CC1=O)N2 (stereo not shown)	17.4

Structure (SMILES)	hERG current change (%, negative = inhibition) at 1uM [%]
CN1CCC(C2(O)c3ccccc3CSc3sccc32)CC1 (stereo not shown)	7.14
CCC(C)Sc1nc2c(c(=O)[nH]c(=O)n2C)n1Cc1ccc(Cl)cc1 (stereo not shown)	2.15
O=C(O)/C=C/C(=O)Nc1ccccc1SC(F)(F)C(F)(F)C(F)(F)F	-2.03
COc1ccc(C(=O)O/N=C(/c2cccs2)C(C)(C)C)cc1	9.8
O=C(O)CSc1nnc(SCc2cccc3ccccc23)s1	6.81
CCc1sc(C(=O)Nc2cccc(C(C)=O)c2)cc1C	3.68
CCCCn1c(SCC(=O)Nc2ccc(NC(C)=O)cc2)nc2ccccc2c1=O	3.76
CCO.Cn1c2c(c(=O)n(C)c1=O)[C@@]1(C(=O)Nc3ccccc31)C(C#N)=C(N)O2	12.2
Cn1ccnc1Sc1ccc(C=O)cc1[N+](=O)[O-]	4.93
CCOC(=O)c1[nH]c2ccc(OCC)cc2c1CCCN1C(=O)c2ccccc2C1=O	14.5
COC(=O)CN1C(=O)[C@@H]2[C@H](C1=O)[C@@H]1CC(C(=O)OC)=C[C@@H](C(=O)OC)[C@@H]3C1=C(C(=O)[C@@]3(C)NC(=O)c1ccccc1)[C@@H]2C	9.32
CC(C)[C@@H]1NC(=O)N(c2ccc(Oc3ccccc3)cc2)C1=O	11.4
COc1ccc(NC(=O)CCC(=O)N(Cc2ccc(OC)c(OC)c2)c2nccs2)c(OC)c1	8.49
CCOC(=O)c1ccccc1NC(=O)C1COc2ccccc2O1 (stereo not shown)	9.21
O=C(O)CC(NCc1ccco1)C(=O)OCCCl (stereo not shown)	15.2
O=C(NCc1ccccc1)c1cccc(COc2ccc(Cl)cc2)c1	7.31
C[C@@]12C(=O)N(Cc3ccccc3)CC(=O)N1[C@H](/C=C/c1ccccc1)[C@@H]1C(=O)N(c3ccccc3)C(=O)[C@@H]12	3.72
CC1CCN(S(=O)(=O)c2ccc3[nH]c(=O)c(=O)[nH]c3c2)CC1	2.51
O=[N+]([O-])c1ccc(Oc2cccc(Br)c2)c2ccncc12	11.9
CN1CCc2c(sc3nc(SCC(N)=O)n(-c4ccccc4)c(=O)c23)C1	6.73
C/C(=N/NC(=O)c1sc(NS(=O)(=O)c2ccccc2)nc1C)c1sc(N)nc1C	11.1
